The values below come from the supplement of paper PMC12217912.

B1: TEV protease; numbered along this chain (parent)
chain: MGESLFKGPRDYNPISSSICHLTNESDGHTTSLYGIGFGPFIITNKHLFRRNNGTLVVQSLHGVFKVKDTTTLQQHLVDGRDMIIIRMPKDFPPFPQKLKFREPQREERICLVTTNFQTKSMSSMVSDTSCTFPSGDGIFWKHWIQTKDGQCGSPLVSTRDGFIVGIHSASNFTNTNNYFTSVPKNFMELLTNQEAQQWVSGWRLNADSVLWGGHKVFMVKPEEPFQPVKEATQL

The experiment covers variants of B1. In words: raw area under fraction-flipped curve 0-4 h after induction (AUC4h, not background-subtracted), DNA-recorder readout of cleavage of the substrate (dimensionless); higher = more cleavage of the substrate by the protease variant. The conditions noted are these: temperature: 34 °C; time window: 0-4 h after rhamnose induction. The protocol: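 In vivo DNA recorder in E. coli TOP10(DE3) ΔrhaA at 34 °C. Each TEVp single-site mutant (parent TEVp 0) is paired with a single-site variant of the 7-mer TEVs (canonical ENLYFQ|S). The substrate sits between flexible linkers in a Bxb1-sfGFP-TEVs-SsrA fusion, so cleavage stabilises Bxb1 and speeds flipping of a recombination array, read by NGS. The value is the raw area under the fraction-flipped curve over 0-4 h after rhamnose induction (AUC4h), with ≥20 reads per time point. It is not background-subtracted; inactive controls average about 0.047.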

The other results are listed elsewhere or left out. The full chains were built here from the parent and the listed change. Inactive controls read about 0.05.
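Further: Bxb1 expression induced with 0.2% (w/v) L-rhamnose at OD600 near 0.5, cultures sampled hourly, flipped fraction per protease–substrate barcode pair counted by paired-end Illumina sequencing.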

For the variant MGESLFKGPRDYNPISSSICHLQNESDGHTTSLYGIGFGPFIITNKHLFRRNNGTLVVQSLHGVFKVKDTTTLQQHLVDGRDMIIIRMPKDFPPFPQKLKFREPQREERICLVTTNFQTKSMSSMVSDTSCTFPSGDGIFWKHWIQTKDGQCGSPLVSTRDGFIVGIHSASNFTNTNNYFTSVPKNFMELLTNQEAQQWVSGWRLNADSVLWGGHKVFMVKPEEPFQPVKEATQL [T23Q], the “area with substrate ENLYCQS” value came out at 0.0776, the “area with substrate ENLYDQS” value stood at 0.0554, the “area with substrate ENLYEQS” value is 0.0672 and the “area with substrate ENLYHQS” value was found to be 0.0668. Moreover, the “area with substrate ENLYIQS” value stood at 0.128, the “area with substrate ENLYLQS” value stood at 0.0621, the “area with substrate ENLYMQS” value amounted to 0.0628 and the “area with substrate ENLYNQS” value is 0.0702. For the same variant, the “area with substrate ENLYPQS” value was found to be 0.0359, the “area with substrate ENLYQQS” value is 0.05, the “area with substrate ENLYRQS” value worked out at 0.0497 and the “area with substrate ENLYSQS” value was 0.0621. Also, the “area with substrate ENLYVQS” value worked out at 0.107, the “area with substrate ENLYWQS” value amounted to 0.0758 and the “area with substrate ENLYYQS” value was found to be 0.0623.

With MGESLFKGPRDYNPISSSICHLMNESDGHTTSLYGIGFGPFIITNKHLFRRNNGTLVVQSLHGVFKVKDTTTLQQHLVDGRDMIIIRMPKDFPPFPQKLKFREPQREERICLVTTNFQTKSMSSMVSDTSCTFPSGDGIFWKHWIQTKDGQCGSPLVSTRDGFIVGIHSASNFTNTNNYFTSVPKNFMELLTNQEAQQWVSGWRLNADSVLWGGHKVFMVKPEEPFQPVKEATQL [T23M], the “area with substrate ENLYCQS” value amounted to 0.0864, the “area with substrate ENLYDQS” value came to 0.0521, the “area with substrate ENLYEQS” value amounted to 0.0613 and the “area with substrate ENLYHQS” value is 0.0651. For the same variant, the “area with substrate ENLYIQS” value stood at 0.115, the “area with substrate ENLYKQS” value came to 0.0576, the “area with substrate ENLYLQS” value turned out to be 0.0653 and the “area with substrate ENLYMQS” value turned out to be 0.0852. In addition, the “area with substrate ENLYNQS” value came to 0.0747, the “area with substrate ENLYPQS” value was found to be 0.0601, the “area with substrate ENLYSQS” value turned out to be 0.0666 and the “area with substrate ENLYVQS” value turned out to be 0.0962. The “area with substrate ENLYWQS” value came to 0.0962 and the “area with substrate ENLYYQS” value worked out at 0.0611.

MGEKLFKGPRDYNPISSSICHLTNESDGHTTSLYGIGFGPFIITNKHLFRRNNGTLVVQSLHGVFKVKDTTTLQQHLVDGRDMIIIRMPKDFPPFPQKLKFREPQREERICLVTTNFQTKSMSSMVSDTSCTFPSGDGIFWKHWIQTKDGQCGSPLVSTRDGFIVGIHSASNFTNTNNYFTSVPKNFMELLTNQEAQQWVSGWRLNADSVLWGGHKVFMVKPEEPFQPVKEATQL [S4K]: the “area with substrate ENLYCQS” value stood at 0.117, the “area with substrate ENLYDQS” value came out at 0.0238, the “area with substrate ENLYEQS” value was 0.0619 and the “area with substrate ENLYHQS” value stood at 0.0606. The “area with substrate ENLYIQS” value came to 0.144, the “area with substrate ENLYLQS” value was 0.0599, the “area with substrate ENLYNQS” value came out at 0.0622 and the “area with substrate ENLYPQS” value was 0.0795. Also, the “area with substrate ENLYQQS” value stood at 0.0836, the “area with substrate ENLYRQS” value stood at 0.0702, the “area with substrate ENLYSQS” value amounted to 0.0781 and the “area with substrate ENLYVQS” value was found to be 0.155. Moreover, the “area with substrate ENLYWQS” value amounted to 0.117 and the “area with substrate ENLYYQS” value amounted to 0.0654.

MGEPLFKGPRDYNPISSSICHLTNESDGHTTSLYGIGFGPFIITNKHLFRRNNGTLVVQSLHGVFKVKDTTTLQQHLVDGRDMIIIRMPKDFPPFPQKLKFREPQREERICLVTTNFQTKSMSSMVSDTSCTFPSGDGIFWKHWIQTKDGQCGSPLVSTRDGFIVGIHSASNFTNTNNYFTSVPKNFMELLTNQEAQQWVSGWRLNADSVLWGGHKVFMVKPEEPFQPVKEATQL [S4P]: the “area with substrate ENLYCQS” value came out at 0.0943, the “area with substrate ENLYDQS” value was 0.0486, the “area with substrate ENLYEQS” value is 0.0673 and the “area with substrate ENLYGQS” value worked out at 0.0637. Besides, the “area with substrate ENLYHQS” value is 0.0566, the “area with substrate ENLYIQS” value turned out to be 0.153, the “area with substrate ENLYKQS” value is 0.0529 and the “area with substrate ENLYLQS” value was determined as 0.0679. In addition, the “area with substrate ENLYMQS” value amounted to 0.0809, the “area with substrate ENLYNQS” value turned out to be 0.0628, the “area with substrate ENLYPQS” value is 0.0809 and the “area with substrate ENLYQQS” value came out at 0.0174. In addition, the “area with substrate ENLYSQS” value is 0.0788, the “area with substrate ENLYTQS” value was found to be 0.0856, the “area with substrate ENLYVQS” value stood at 0.108 and the “area with substrate ENLYWQS” value was 0.0749. The “area with substrate ENLYYQS” value was 0.0626.

Consider MGESLFKGPRDPNPISSSICHLTNESDGHTTSLYGIGFGPFIITNKHLFRRNNGTLVVQSLHGVFKVKDTTTLQQHLVDGRDMIIIRMPKDFPPFPQKLKFREPQREERICLVTTNFQTKSMSSMVSDTSCTFPSGDGIFWKHWIQTKDGQCGSPLVSTRDGFIVGIHSASNFTNTNNYFTSVPKNFMELLTNQEAQQWVSGWRLNADSVLWGGHKVFMVKPEEPFQPVKEATQL [Y12P], for which the “area with substrate ENLYCQS” value is 0.0861, the “area with substrate ENLYDQS” value came to 0.0579, the “area with substrate ENLYEQS” value was 0.0685 and the “area with substrate ENLYGQS” value is 0.0623. The “area with substrate ENLYIQS” value worked out at 0.108, the “area with substrate ENLYKQS” value stood at 0.0234, the “area with substrate ENLYLQS” value worked out at 0.0961 and the “area with substrate ENLYMQS” value is 0.09. For the same variant, the “area with substrate ENLYNQS” value stood at 0.0766, the “area with substrate ENLYPQS” value was 0.067, the “area with substrate ENLYSQS” value came out at 0.0701 and the “area with substrate ENLYTQS” value was found to be 0.0787. In addition, the “area with substrate ENLYVQS” value was 0.105, the “area with substrate ENLYWQS” value amounted to 0.0843 and the “area with substrate ENLYYQS” value turned out to be 0.0621.

In the case of MGESLFKGPRDYNPISSSICHLTNESDMHTTSLYGIGFGPFIITNKHLFRRNNGTLVVQSLHGVFKVKDTTTLQQHLVDGRDMIIIRMPKDFPPFPQKLKFREPQREERICLVTTNFQTKSMSSMVSDTSCTFPSGDGIFWKHWIQTKDGQCGSPLVSTRDGFIVGIHSASNFTNTNNYFTSVPKNFMELLTNQEAQQWVSGWRLNADSVLWGGHKVFMVKPEEPFQPVKEATQL [G28M], the “area with substrate ENLYCQS” value was 0.0737, the “area with substrate ENLYDQS” value was determined as 0.0585, the “area with substrate ENLYEQS” value stood at 0.0588 and the “area with substrate ENLYGQS” value stood at 0.06. Also, the “area with substrate ENLYHQS” value came to 0.0507, the “area with substrate ENLYIQS” value is 0.0863, the “area with substrate ENLYKQS” value was 0.0696 and the “area with substrate ENLYLQS” value came to 0.068. For the same variant, the “area with substrate ENLYMQS” value was 0.0672, the “area with substrate ENLYNQS” value came out at 0.0709, the “area with substrate ENLYPQS” value is 0.0582 and the “area with substrate ENLYRQS” value stood at 0.0605. The “area with substrate ENLYSQS” value is 0.0607 and the “area with substrate ENLYVQS” value was 0.0829.

MGESLFKGPRDYNPISSFICHLTNESDGHTTSLYGIGFGPFIITNKHLFRRNNGTLVVQSLHGVFKVKDTTTLQQHLVDGRDMIIIRMPKDFPPFPQKLKFREPQREERICLVTTNFQTKSMSSMVSDTSCTFPSGDGIFWKHWIQTKDGQCGSPLVSTRDGFIVGIHSASNFTNTNNYFTSVPKNFMELLTNQEAQQWVSGWRLNADSVLWGGHKVFMVKPEEPFQPVKEATQL [S18F]: the “area with substrate ENLYCQS” value is 0.078, the “area with substrate ENLYDQS” value was found to be 0.0585, the “area with substrate ENLYEQS” value was 0.094 and the “area with substrate ENLYGQS” value turned out to be 0.0614. The “area with substrate ENLYHQS” value was 0.0728, the “area with substrate ENLYIQS” value turned out to be 0.0852, the “area with substrate ENLYKQS” value was 0.0494 and the “area with substrate ENLYLQS” value is 0.0893. Moreover, the “area with substrate ENLYMQS” value came out at 0.0794, the “area with substrate ENLYNQS” value is 0.0514, the “area with substrate ENLYPQS” value amounted to 0.0731 and the “area with substrate ENLYQQS” value came to 0.0567. Further, the “area with substrate ENLYRQS” value amounted to 0.0572, the “area with substrate ENLYSQS” value worked out at 0.0641, the “area with substrate ENLYTQS” value turned out to be 0.0779 and the “area with substrate ENLYVQS” value was 0.0894. The “area with substrate ENLYWQS” value amounted to 0.0816 and the “area with substrate ENLYYQS” value was found to be 0.0815.

With MGESLFKGPRDYNPISSSICHLTNESDGHTTSLYGIGFGPFIITNKHLFRRNNGTLVVQSLHGVFKVKDTTTLQQHLVDGRDMIIIRMPKDFPPFPQKLKFREPQREERICLVTTNFQTKSMSSMVSDTSCTFPSGDGIFWKHWIQTKDGQCGSPLVSTRDGFIVGIHSASNFTNTNNYFTSVPKNFMELLTNQEAQQWVSGWRLNADSVLWGGHKVFMVKPEEPFQPVKEADQL [T233D], the “area with substrate ENLYAQS” value stood at 0.0828, the “area with substrate ENLYDQS” value was 0.0614, the “area with substrate ENLYEQS” value came to 0.0772 and the “area with substrate ENLYGQS” value was 0.0674. Besides, the “area with substrate ENLYHQS” value came to 0.065, the “area with substrate ENLYKQS” value is 0.0796, the “area with substrate ENLYLQS” value turned out to be 0.102 and the “area with substrate ENLYMQS” value was 0.118. Moreover, the “area with substrate ENLYNQS” value was found to be 0.0683, the “area with substrate ENLYQQS” value is 0.0823, the “area with substrate ENLYSQS” value amounted to 0.0855 and the “area with substrate ENLYVQS” value was 0.109. In addition, the “area with substrate ENLYWQS” value was determined as 0.0822.

As to MGESLFAGPRDYNPISSSICHLTNESDGHTTSLYGIGFGPFIITNKHLFRRNNGTLVVQSLHGVFKVKDTTTLQQHLVDGRDMIIIRMPKDFPPFPQKLKFREPQREERICLVTTNFQTKSMSSMVSDTSCTFPSGDGIFWKHWIQTKDGQCGSPLVSTRDGFIVGIHSASNFTNTNNYFTSVPKNFMELLTNQEAQQWVSGWRLNADSVLWGGHKVFMVKPEEPFQPVKEATQL [K7A], the “area with substrate ENLYCQS” value came to 0.0623, the “area with substrate ENLYDQS” value turned out to be 0.0629, the “area with substrate ENLYGQS” value amounted to 0.0735 and the “area with substrate ENLYIQS” value amounted to 0.118. Besides, the “area with substrate ENLYMQS” value is 0.125, the “area with substrate ENLYNQS” value amounted to 0.064, the “area with substrate ENLYRQS” value amounted to 0.0565 and the “area with substrate ENLYWQS” value worked out at 0.113. Besides, the “area with substrate ENLYYQS” value worked out at 0.0548.
